# Assay results as given in PubChem BioAssay AID1347073 (National Center for Advancing Translational Sciences (NCATS), 2019).
# Among all 45,000 compounds or so, about 200 (0.44%) were called active. Another 7% or so got no clear call; they are omitted. The call rests on the fitted dose curve; in most records, active means well fitted activation curve with a large enough effect; inconclusive means small, poorly fitted or top-dose-only effect; inactive means no such curve, though single readings can be large or run the other way. This is one part of the list.
# Assay: qHTS of TDP-43 Inhibitors: NCGC Sytravon Library Screen; further: 0% is about no effect; nearly all actives have a fitted effect of over 55% in size
# Conditions: yeast TDP-43 toxicity rescue, BacTiter-Glo growth, 24 h; series mostly up to 46.1 µM; growth rescue (activation): at the top concentration
# Procedure, shortened: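 TDP-43-expressing yeast, pregrown in raffinose, seeded at OD600 0.02 in galactose medium with compound for 24 hr at 30 deg C. Growth read by BacTiter-Glo luminescence, so rescue of toxicity appears as activation.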
row,Structure (SMILES),growth rescue (activation)
1,CC(N)c1csc(Nc2ccc(C(=O)c3ccccc3)cc2)n1 (stereo not drawn),inactive: 12.2%
2,COc1ccc(NC(=O)CN2C(=O)NC(c3ccccc3)(c3ccccc3)C2=O)cc1OC,inactive: -1.88%
3,COc1ccc(NC(=O)CN2C(=O)NC(C)(c3ccc4c(c3)OCO4)C2=O)cc1S(N)(=O)=O (stereo not drawn),inactive: 5.01%
4,Cc1ccc(/C=N/Nc2ccc(F)cc2)s1,inactive: 18.1%
5,CCOC(=O)N1CCN(S(=O)(=O)c2cccc3cccnc23)CC1,inactive: 41.4%
6,CCOc1ccc(CNC(=O)c2ccc3c(c2)N(CC)CCS3)cc1,inactive: 2.16%
7,CS(=O)(=O)c1ccc(C(=O)NCC2(N3CCOCC3)CCCCC2)cc1,inactive: 8.4%
8,O=C(NCc1cccc(Cl)c1)N1CCN(S(=O)(=O)c2ccccc2F)CC1,inactive: 29.5%
9,Cc1cccc(-n2ncc3c2CCCC3NC(=O)Cn2cccn2)c1C (stereo not drawn),inactive: -0.0808%
10,COc1ccc(C(=O)NNC(=O)c2ccc(F)c(S(=O)(=O)N3CCOCC3)c2)cc1,inactive: -0.947%
11,CCCNC(=O)Cn1c(=O)cnc2ccccc21,inactive: -15.6%
12,Cc1cc(Cl)ccc1NC(=O)C(=O)N/N=C/c1ccc2c(c1)OCO2,inactive: 3.41%
13,Cc1nn(-c2ccccc2)c(N)c1C(c1ccccc1)c1c(C)nn(-c2ccccc2)c1N,inactive: 14.9%
14,O=C(CSc1nnc(NC(=O)c2ccccc2F)s1)NC1CC1,inactive: 11.7%
15,Cc1cc(C)n(C(=O)/C(C#N)=C/N(C)C)n1,inactive: 0.488%
16,CC(O)CNc1nc2ccccc2n1CC(=O)N1CCN(Cc2ccccc2)CC1 (stereo not drawn),inactive: 4.14%
17,Cc1cccc(NC(=O)CCC(=O)Nc2nnc(C(F)(F)F)s2)c1,inactive: -1.56%
18,O=C(Cc1ccccc1)Nc1ccc(NC(=O)c2ccco2)cc1,inactive: -15.4%
19,COc1ccc(-c2cc(C(F)(F)F)nc(SCC(=O)Nc3cc(C)on3)n2)cc1OC,inactive: -3.1%
20,O=C(CNS(=O)(=O)c1ccc(F)cc1)N1CCOCC1,inactive: 13.2%
21,O=C(COc1ccccc1/C=C1\SC(=S)NC1=O)Nc1ccc(F)cc1,inactive: 2.71%
22,CC(=O)Nc1ccc(S(=O)(=O)NC2=NCN(C)CN2)cc1,inactive: 2.14%
23,C=CCc1cccc(/C=N/NC(=O)C(C)Nc2cccc(C)c2)c1O (stereo not drawn),inactive: -14.7%
24,CCOc1ccc2nc(S(=O)(=O)NC(=O)C3(C)CCN3C(=O)CCc3cccs3)sc2c1 (stereo not drawn),inactive: 13.6%
25,CCCc1nc2ccccc2c(=O)n1-c1c(C)n(C)n(-c2ccccc2)c1=O,inactive: 16.3%
26,Cc1ccc(S(=O)(=O)CC(=O)N2CCN(c3ccc(F)cc3)CC2)cc1,inactive: 23.1%
27,COCCOC1CCN(C(=O)c2cc(COc3ccc(F)cc3F)on2)CC1,inactive: 18.9%

row,Structure (SMILES),growth rescue (activation)
1,O=C(O)c1ccc(Cl)c(S(=O)(=O)NCc2cccnc2)c1,inactive: 2.07%
2,O=C1N(Cc2cccc(Cl)c2)C[C@@H]2C[C@@H](c3ccco3)N3CCC[C@@]123,inactive: 0.263%
3,COc1ccc(C(=O)/C=C/c2ccc(OC)c(Cn3nnc4ccccc43)c2)cc1,inactive: -5.5%
4,CCN(CC(=O)NCc1ccncc1)S(=O)(=O)c1ccccc1,inactive: 3.07%
5,CCOP(=O)(OCC)C(C#N)=C1SCN(c2ccccc2)CS1,inactive: 25.8%
6,Nc1ccccc1C(=O)N/N=C1/C2CN3CCN(C2)CC1(Cc1ccccc1)C3,inactive: 0.336%
7,CC(C)c1ccc(C(C(=O)NC2CCCCC2)N(C(=O)c2csnn2)C2CC2)cc1 (stereo not drawn),inactive: 10.5%
8,Cn1c(N)c(C(=O)COC(=O)CCCc2c[nH]c3ccccc23)c(=O)n(C)c1=O,inactive: 0.0655%
9,CCOc1ccc(NC(=S)N2CCC(N(C)CC3CCCO3)CC2)cc1 (stereo not drawn),inactive: 4.34%
10,CCn1c(SCC(=O)NC2CC2)nnc1-c1ccc(OC)cc1,inactive: -5.46%
11,O=C(NCCc1ccccc1)C1CCCN(C(=O)Nc2ccc(F)cc2)C1 (stereo not drawn),inactive: 3.38%
12,CC(NC(=O)COC(=O)CNC(=O)c1ccccc1Cl)C1CC2CCC1C2 (stereo not drawn),inactive: 5.78%
13,O=C(COC(=O)c1sc2ccccc2c1Cl)NC1CCCCC1,inactive: 14.1%
14,COc1ccc(NC(=O)c2cc3ccccc3o2)cc1S(=O)(=O)N1CCCCC1,inactive: -13.2%
15,Cc1cccc(-c2c3c(=O)n(C)c(=O)n(C)c3c3nnc4ccccc4n23)c1,inactive: 13.1%
16,CC1CCCC(NC(=O)COC(=O)CCC(=O)c2cccs2)C1C (stereo not drawn),inactive: 15.1%
17,CC(=O)NCCC(=O)Nc1cc(S(=O)(=O)Nc2ccc(Cl)cc2)ccc1N1CCCC1,inactive: 4.59%
18,O=[N+]([O-])c1ccccc1N(CC1CO1)S(=O)(=O)c1ccccc1 (stereo not drawn),inactive: 3.81%
19,Cc1ccccc1OCc1nc2c3cnn(-c4cccc(F)c4)c3ncn2n1,inactive: 4.26%
20,CCOC(=O)C1=C(C)NC(=O)CC1c1cc2c(cc1[N+](=O)[O-])OCO2 (stereo not drawn),inactive: 10.2%
21,COc1ccc(Cn2c(C)c(C)c(C#N)c2NC(=O)Nc2ccccc2)cc1,inactive: 26.4%
22,Cc1cc2nnc(SCC(=O)Nc3cccc(S(=O)(=O)N4CCOCC4)c3)n2c2ccccc12,inactive: -27.1%
23,CCOc1cc(N2CCOCC2)c(OCC)cc1NC(=O)c1ccc(-n2ccnc2)c([N+](=O)[O-])c1,inactive: 21.2%
24,COc1ccc(NS(=O)(=O)c2ccc(N/N=C(\C)c3ccncc3)c([N+](=O)[O-])c2)cc1,inactive: 2.28%
25,COC(=O)c1c(NC(=O)/C(C#N)=C/c2ccc(OC)cc2)sc2c1CCC2,inactive: 0.527%
26,c1ccc2c(c1)CN1CCCC1=N2,inactive: -15.8%
